Test results published in PMC9280432.
Results are given in words; binding and its absence hold for the method and conditions named. For some assays here: In cells and extracts the contact can be indirect. Some results given as binding are weak or reduced against the parent protein; the word gives no strength. For some assays here: Where a sequence is shown, tags or fusion partners need not be part of it. Each block holds one binder with its values, some of them ahead of it.

How the values were obtained:
[1] = molecular target: T1, RopGEF7-CDS (full-length RopGEF7) in pGBKT7 (Arabidopsis) (UniProt Q9LZN0); assay: two-hybrid; direct assay: bait (pGBKT7) and prey (pGADT7) co-transformed by pairs into yeast AH109; SD/-Trp-Leu at 28°C for 3 days, then SD/-Trp-Leu-Ade-His
T1 sequence: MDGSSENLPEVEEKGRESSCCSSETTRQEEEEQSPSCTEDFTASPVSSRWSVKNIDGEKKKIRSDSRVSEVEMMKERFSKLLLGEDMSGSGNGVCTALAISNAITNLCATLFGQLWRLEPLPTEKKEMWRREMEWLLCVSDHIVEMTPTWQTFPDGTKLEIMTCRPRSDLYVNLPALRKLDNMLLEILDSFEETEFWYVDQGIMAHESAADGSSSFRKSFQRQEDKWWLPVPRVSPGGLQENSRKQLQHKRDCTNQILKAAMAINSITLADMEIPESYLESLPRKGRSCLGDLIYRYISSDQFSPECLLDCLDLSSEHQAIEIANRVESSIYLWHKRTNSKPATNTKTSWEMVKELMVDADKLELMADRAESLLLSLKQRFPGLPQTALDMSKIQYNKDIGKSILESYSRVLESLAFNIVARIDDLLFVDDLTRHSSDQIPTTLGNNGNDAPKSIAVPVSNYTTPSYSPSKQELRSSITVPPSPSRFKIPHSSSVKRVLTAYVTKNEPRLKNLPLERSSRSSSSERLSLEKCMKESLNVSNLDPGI

[2] = molecular target: T2, RopGEF7-PRONE (PRONE domain, aa 60-447) in pGBKT7 (Arabidopsis) (UniProt Q9LZN0); assay: as above
T2 sequence: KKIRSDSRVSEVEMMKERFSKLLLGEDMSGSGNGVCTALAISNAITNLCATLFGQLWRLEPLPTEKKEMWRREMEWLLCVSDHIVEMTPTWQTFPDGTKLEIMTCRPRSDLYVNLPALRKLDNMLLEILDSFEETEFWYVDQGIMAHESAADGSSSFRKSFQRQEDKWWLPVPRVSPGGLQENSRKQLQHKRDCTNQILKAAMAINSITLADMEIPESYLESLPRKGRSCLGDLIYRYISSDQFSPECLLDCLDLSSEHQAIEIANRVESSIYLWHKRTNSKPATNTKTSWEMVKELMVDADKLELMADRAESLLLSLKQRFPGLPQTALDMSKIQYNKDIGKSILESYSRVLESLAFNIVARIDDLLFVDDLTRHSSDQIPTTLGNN

[3] = molecular target: T3, GST-eIF4E1 (recombinant GST-tagged eIF4E1) (Arabidopsis) (UniProt O23252); assay: pull-down; purified GST-eIF4E1 as bait mixed with YFP-RopGEF7 in total plant protein of 35Spro:YFP-RopGEF7 plants (lines L1, L11), 4°C for 2 h; detection with GFP antibody; only the target purified
T3 sequence: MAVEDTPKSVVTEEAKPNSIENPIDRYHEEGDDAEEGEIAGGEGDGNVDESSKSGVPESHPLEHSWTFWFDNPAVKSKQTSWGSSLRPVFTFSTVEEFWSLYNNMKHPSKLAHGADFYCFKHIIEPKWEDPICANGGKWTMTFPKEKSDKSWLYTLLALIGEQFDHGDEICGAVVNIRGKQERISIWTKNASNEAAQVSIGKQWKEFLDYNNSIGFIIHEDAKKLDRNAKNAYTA

[4] = molecular target: T4, RopGEF1, yeast two-hybrid construct (Arabidopsis) (UniProt Q93ZY2); assay: two-hybrid; direct assay: bait (pGBKT7) and prey (pGADT7) co-transformed by pairs into yeast AH109; SD/-Trp-Leu at 28°C for 3 days, then SD/-Trp-Leu-Ade-His
T4 sequence: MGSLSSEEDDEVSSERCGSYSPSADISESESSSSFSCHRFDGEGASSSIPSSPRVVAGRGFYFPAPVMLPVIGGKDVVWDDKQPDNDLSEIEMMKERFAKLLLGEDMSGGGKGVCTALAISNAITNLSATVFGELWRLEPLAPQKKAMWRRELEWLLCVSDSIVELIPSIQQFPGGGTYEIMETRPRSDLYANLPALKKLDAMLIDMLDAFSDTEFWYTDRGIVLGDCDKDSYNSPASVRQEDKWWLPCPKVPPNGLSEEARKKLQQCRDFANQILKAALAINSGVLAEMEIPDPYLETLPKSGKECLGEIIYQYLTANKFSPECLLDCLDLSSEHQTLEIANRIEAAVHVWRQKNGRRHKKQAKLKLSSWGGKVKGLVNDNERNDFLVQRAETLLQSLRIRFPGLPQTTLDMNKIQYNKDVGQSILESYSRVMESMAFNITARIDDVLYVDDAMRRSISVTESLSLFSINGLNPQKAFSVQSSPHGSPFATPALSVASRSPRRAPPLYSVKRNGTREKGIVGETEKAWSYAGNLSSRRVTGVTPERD

[5] = molecular target: T5, RopGEF4, yeast two-hybrid construct (Arabidopsis) (UniProt Q0WNP7); assay: as above
T5 sequence: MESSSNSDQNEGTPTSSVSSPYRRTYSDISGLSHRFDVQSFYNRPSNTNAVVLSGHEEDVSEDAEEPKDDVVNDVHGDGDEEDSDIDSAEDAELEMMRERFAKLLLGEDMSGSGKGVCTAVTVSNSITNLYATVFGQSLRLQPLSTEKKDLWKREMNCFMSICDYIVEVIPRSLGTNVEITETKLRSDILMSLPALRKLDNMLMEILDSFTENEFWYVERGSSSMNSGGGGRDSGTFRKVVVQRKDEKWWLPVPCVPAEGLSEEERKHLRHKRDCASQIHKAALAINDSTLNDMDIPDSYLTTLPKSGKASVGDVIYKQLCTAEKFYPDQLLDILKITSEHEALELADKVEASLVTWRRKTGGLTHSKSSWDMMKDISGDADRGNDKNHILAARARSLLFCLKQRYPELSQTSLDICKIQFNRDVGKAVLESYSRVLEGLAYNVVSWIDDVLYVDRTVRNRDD

[6] = molecular target: T6, RopGEF6, yeast two-hybrid construct (Arabidopsis) (UniProt Q9M056); assay: as above
T6 sequence: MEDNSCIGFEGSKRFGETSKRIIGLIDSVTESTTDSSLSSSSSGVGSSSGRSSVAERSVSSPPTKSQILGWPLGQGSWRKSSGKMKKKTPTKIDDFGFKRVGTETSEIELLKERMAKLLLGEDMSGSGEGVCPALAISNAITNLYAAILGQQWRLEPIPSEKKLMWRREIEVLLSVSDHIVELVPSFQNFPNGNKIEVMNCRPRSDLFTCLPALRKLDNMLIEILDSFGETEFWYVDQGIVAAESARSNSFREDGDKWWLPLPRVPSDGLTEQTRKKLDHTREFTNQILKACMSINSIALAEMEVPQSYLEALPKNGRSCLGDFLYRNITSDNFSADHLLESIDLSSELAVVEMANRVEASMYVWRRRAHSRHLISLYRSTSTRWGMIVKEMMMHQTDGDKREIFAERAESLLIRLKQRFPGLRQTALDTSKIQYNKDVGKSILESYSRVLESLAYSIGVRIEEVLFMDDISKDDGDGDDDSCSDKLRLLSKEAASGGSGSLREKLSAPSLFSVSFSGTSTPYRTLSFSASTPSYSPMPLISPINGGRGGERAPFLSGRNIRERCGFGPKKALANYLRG

[7] = molecular target: T7, RopGEF7-C (C-terminal fragment, aa 448-546) in pGBKT7 (Arabidopsis) (UniProt Q9LZN0); assay: as above
T7 sequence: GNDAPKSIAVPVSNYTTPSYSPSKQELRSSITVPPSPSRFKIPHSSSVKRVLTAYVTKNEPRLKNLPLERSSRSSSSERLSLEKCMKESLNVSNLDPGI

[8] = molecular target: T8, RopGEF7-ΔN (N-terminal deleted fragment, aa 60-546) in pGBKT7 (Arabidopsis) (UniProt Q9LZN0); assay: as above
T8 sequence: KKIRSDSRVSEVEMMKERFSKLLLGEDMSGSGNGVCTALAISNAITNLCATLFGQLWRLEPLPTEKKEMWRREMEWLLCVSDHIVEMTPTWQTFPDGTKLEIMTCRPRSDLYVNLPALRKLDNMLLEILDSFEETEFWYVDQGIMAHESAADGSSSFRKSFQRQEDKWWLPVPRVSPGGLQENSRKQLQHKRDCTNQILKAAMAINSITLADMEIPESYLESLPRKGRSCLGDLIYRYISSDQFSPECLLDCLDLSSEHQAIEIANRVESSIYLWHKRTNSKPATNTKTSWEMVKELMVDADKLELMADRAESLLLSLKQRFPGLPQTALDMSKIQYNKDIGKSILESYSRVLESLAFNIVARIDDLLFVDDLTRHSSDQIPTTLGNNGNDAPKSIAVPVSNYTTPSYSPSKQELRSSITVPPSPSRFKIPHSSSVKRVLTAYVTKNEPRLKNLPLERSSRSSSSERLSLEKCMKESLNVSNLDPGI

[9] = molecular target: T9, cYFP-RopGEF7 (Arabidopsis) (UniProt Q9LZN0); assay: split reporter; BiFC: nYFP-eIF4E1 and cYFP-RopGEF7 co-transformed into Arabidopsis protoplasts; YFP signal by microscopy
T9 sequence: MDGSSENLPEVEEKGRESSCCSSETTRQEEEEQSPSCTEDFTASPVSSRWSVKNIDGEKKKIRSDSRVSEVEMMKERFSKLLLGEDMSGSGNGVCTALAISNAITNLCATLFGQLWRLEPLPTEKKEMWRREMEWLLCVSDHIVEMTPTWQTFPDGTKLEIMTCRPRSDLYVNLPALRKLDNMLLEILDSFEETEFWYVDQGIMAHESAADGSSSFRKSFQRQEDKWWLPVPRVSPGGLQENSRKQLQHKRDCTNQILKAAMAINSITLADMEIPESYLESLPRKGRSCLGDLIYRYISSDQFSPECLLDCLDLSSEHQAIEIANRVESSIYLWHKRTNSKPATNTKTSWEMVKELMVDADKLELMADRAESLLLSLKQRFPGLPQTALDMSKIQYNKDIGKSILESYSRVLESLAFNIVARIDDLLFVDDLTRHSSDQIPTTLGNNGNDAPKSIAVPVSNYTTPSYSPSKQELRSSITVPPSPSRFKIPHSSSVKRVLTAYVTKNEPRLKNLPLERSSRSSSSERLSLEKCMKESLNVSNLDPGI

B2: YFP-RopGEF7 (from 35Spro:YFP-RopGEF7 transgenic plants) (protein, UniProt Q9LZN0 1-546)
chain: MDGSSENLPEVEEKGRESSCCSSETTRQEEEEQSPSCTEDFTASPVSSRWSVKNIDGEKKKIRSDSRVSEVEMMKERFSKLLLGEDMSGSGNGVCTALAISNAITNLCATLFGQLWRLEPLPTEKKEMWRREMEWLLCVSDHIVEMTPTWQTFPDGTKLEIMTCRPRSDLYVNLPALRKLDNMLLEILDSFEETEFWYVDQGIMAHESAADGSSSFRKSFQRQEDKWWLPVPRVSPGGLQENSRKQLQHKRDCTNQILKAAMAINSITLADMEIPESYLESLPRKGRSCLGDLIYRYISSDQFSPECLLDCLDLSSEHQAIEIANRVESSIYLWHKRTNSKPATNTKTSWEMVKELMVDADKLELMADRAESLLLSLKQRFPGLPQTALDMSKIQYNKDIGKSILESYSRVLESLAFNIVARIDDLLFVDDLTRHSSDQIPTTLGNNGNDAPKSIAVPVSNYTTPSYSPSKQELRSSITVPPSPSRFKIPHSSSVKRVLTAYVTKNEPRLKNLPLERSSRSSSSERLSLEKCMKESLNVSNLDPGI
binding [3]: binds

B3: eIF4E1 (eukaryotic translation initiation factor 4E1), cDNA in pGADT7 for the direct yeast two-hybrid assay (protein, UniProt O23252 1-235)
chain: MAVEDTPKSVVTEEAKPNSIENPIDRYHEEGDDAEEGEIAGGEGDGNVDESSKSGVPESHPLEHSWTFWFDNPAVKSKQTSWGSSLRPVFTFSTVEEFWSLYNNMKHPSKLAHGADFYCFKHIIEPKWEDPICANGGKWTMTFPKEKSDKSWLYTLLALIGEQFDHGDEICGAVVNIRGKQERISIWTKNASNEAAQVSIGKQWKEFLDYNNSIGFIIHEDAKKLDRNAKNAYTA
binding [4]: no binding
binding [5]: no binding
binding [6]: no binding
binding [7]: no binding
binding [1]: binds
binding [2]: binds
binding [8]: binds

Continued, values first:

binding [1]: binds weakly
binding [2]: binds
B1: eIF(iso)4E, yeast two-hybrid construct (protein, UniProt O04663 1-198)
chain: MATDDVNEPLPAAAELPATEAEKQPHKLERKWSFWFDNQSKKGAAWGASLRKAYTFDTVEDFWGLHETIFQTSKLTANAEIHLFKAGVEPKWEDPECANGGKWTWVVTANRKEALDKGWLETLMALIGEQFDEADEICGVVASVRPQSKQDKLSLWTRTKSNEAVLMGIGKKWKEILDVTDKITFNNHDDSRRSRFTV

binding [9]: binds
B4: nYFP-eIF4E1 (protein, UniProt O23252 1-235)
chain: MAVEDTPKSVVTEEAKPNSIENPIDRYHEEGDDAEEGEIAGGEGDGNVDESSKSGVPESHPLEHSWTFWFDNPAVKSKQTSWGSSLRPVFTFSTVEEFWSLYNNMKHPSKLAHGADFYCFKHIIEPKWEDPICANGGKWTMTFPKEKSDKSWLYTLLALIGEQFDHGDEICGAVVNIRGKQERISIWTKNASNEAAQVSIGKQWKEFLDYNNSIGFIIHEDAKKLDRNAKNAYTA
